# About 260 (0.074%) of roughly 350,000 compounds were called active. Inconclusive means that the source gave no clear call. Such entries were picked first, then a sample of the others. Calls come from the whole dose curve; as a rule, active = well fitted inhibition curve with a large enough effect; inconclusive = small, poorly fitted or top-dose-only effect; inactive = no such curve, though single readings can be large or run the other way. Potencies beside an inconclusive call are fits to weak or partial responses and may not hold up.
# Target: Ferritin light chain (Equus caballus) (UniProt P02791)
# UniProt P02791, sequence (P02791 whole entry, looked up): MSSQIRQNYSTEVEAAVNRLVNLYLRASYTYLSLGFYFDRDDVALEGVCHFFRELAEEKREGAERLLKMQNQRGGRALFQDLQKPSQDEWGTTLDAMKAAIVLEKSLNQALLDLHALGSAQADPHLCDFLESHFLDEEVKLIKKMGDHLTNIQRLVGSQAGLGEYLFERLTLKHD
# Assay: qHTS Assay for Identification of Novel General Anesthetics; note: nearly all actives have a fitted effect of over 20% in size
# Settings: apoferritin/1-aminoanthracene competitive binding, fluorescence; series mostly up to 77.5 µM
# Method in brief: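 Concentration-response curves derived by four-parameter Hill fitting of normalized fluorescence, where compounds displaced 1-AMA from 10 uM horse apoferritin following a brief 10 min room-temperature incubation; propofol titration acted as positive control.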
# Potency is the fitted concentration of half-maximal effect; tags give direction and shape of the fitted curve.
row,SMILES,Potency
1,CC(=O)c1ccc(NC(=S)NC2CCCC(C)C2C)cc1 (stereo not given),"inconclusive: 35.5 µM [inhibitor, partial curve]"
2,COc1ccc(CCNS(=O)(=O)c2ccc(Br)cc2)cc1,"inconclusive: 22.4 µM [inhibitor, partial curve]"
3,Cc1ccc(CSc2ccc3nnc(-c4ccccn4)n3n2)cc1,"inconclusive: 28.2 µM [inhibitor, partial curve]"
4,CCn1c(SCC(=O)Nc2cccc(OC)c2)nc2ccccc2c1=O,inactive
5,Cc1cccc(CCNC(=O)CNS(=O)(=O)c2ccc3nc(C)sc3c2)c1,"inconclusive: 28.2 µM [inhibitor, partial curve]"
6,CC1=C(c2ccc(C)c(C)c2)S(=O)(=O)N=C1N1CCC(C(=O)Nc2ccc(Cl)cc2)CC1,"inconclusive: 7.08 µM [inhibitor, full curve, poor fit]"
7,Cc1ccc(CNC(=O)C2(C(F)(F)F)C/C(=C\Cc3ccccc3)CCCO2)o1 (stereo not given),"inconclusive: 35.5 µM [inhibitor, single point]"
8,O=C(Nc1ccc2c(c1)OCO2)Oc1ccccc1,"inconclusive: 22.4 µM [inhibitor, partial curve]"
9,Cn1cccc1/C=C1\CCC/C(=C\c2cccn2C)C1=O,"inconclusive: 28.2 µM [inhibitor, single point]"
10,Cc1ccc2nc(SCC(=O)Nc3cc(C(C)(C)C)nn3-c3ccccc3)[nH]c2c1,"inconclusive: 6.31 µM [inhibitor, full curve]"
11,O=C(COC(=O)/C=C/c1ccc(F)cc1)Nc1cccc(S(=O)(=O)N2CCCC2)c1,"inconclusive: 35.5 µM [inhibitor, partial curve]"
12,O=C(O)CC/C(=N/NC(=O)CNC(=O)Cc1ccccc1)c1ccccc1,"inconclusive: 15.8 µM [inhibitor, partial curve]"
13,CCCN(CCC)S(=O)(=O)c1ccc(C(=O)Nc2ccc(OCC(=O)N3CCOCC3)cc2)cc1,"inconclusive: 50.1 µM [inhibitor, single point]"
14,CN(C)/C=C/C(=O)c1cnc(-c2ccc(Cl)cc2)s1,inactive
15,Cc1cc(C(C)(C)C)ccc1OCCCCN1CCCC1,"inconclusive: 50.1 µM [inhibitor, single point]"
16,COc1ccc(C2=NS(=O)(=O)N(C)C(C(=O)N3CCCCC3C)=C2)cc1 (stereo not given),"inconclusive: 50.1 µM [inhibitor, single point]"
17,CCn1c(=O)n(CC(=O)N2CC(C)CC(C)C2)c(=O)c2ccccc21 (stereo not given),"inconclusive: 39.8 µM [inhibitor, partial curve]"
18,Cc1ccc(-c2nc3nc(C)cc(N4CCN(c5cccc(C)c5)C(C)C4)n3n2)cc1 (stereo not given),"inconclusive: 2.24 µM [inhibitor, partial curve]"
19,O=C(NC1CCCCC1)C(c1ccco1)N(C(=O)c1csnn1)c1cccc(Cl)c1 (stereo not given),"inconclusive: 35.5 µM [inhibitor, single point]"
20,CC(C)=CCC(C)(C)C1OCCN1C(=O)c1ccccc1 (stereo not given),"inconclusive: 31.6 µM [inhibitor, single point]"
21,O=C(NCc1cccs1)c1nn(-c2ccccc2F)nc1CO,inactive
22,CCNC1=C(Cl)C(=O)c2ccccc2C1=O,"inconclusive: 25.1 µM [inhibitor, single point]"

row,SMILES,Potency
1,COc1ccccc1-n1c(SCC(=O)N2CCCCC2)nnc1-c1ccccc1O,"inconclusive: 28.2 µM [inhibitor, single point]"
2,CC(C)CCOCC1CC2(CC(C)(c3csc(N)n3)OC2=O)C(=O)O1 (stereo not given),inactive
3,CC(C)OC(=O)C(C#N)c1nc2ccccc2nc1N1CCCC1 (stereo not given),"inconclusive: 0.891 µM [inhibitor, full curve, poor fit]"
4,Cc1ccc(NC(=O)C2CCCN(S(=O)(=O)c3ccc4[nH]c(=O)ccc4c3)C2)cc1C (stereo not given),"inconclusive: 28.2 µM [inhibitor, single point]"
5,O=C(Nc1ccc(Nc2ccccc2)cc1)C(Cl)(Cl)Cl,"inconclusive: 35.5 µM [inhibitor, single point]"
6,O=C(Cc1ccsc1)Nc1cc(F)ccc1F,"inconclusive: 50.1 µM [inhibitor, single point]"
7,COc1ccc(OCC(=O)N2CCN(S(=O)(=O)c3ccccc3[N+](=O)[O-])CC2)cc1,inactive
8,c1ccc(-c2nc3ccccc3[nH]2)cc1,inactive
9,CCc1c(O)nc(SC2CC(=O)N(c3ccccc3)C2=O)[nH]c1=O (stereo not given),"inconclusive: 15.8 µM [inhibitor, partial curve]"
10,O=C(Cc1c(F)c(F)c(F)c(F)c1F)OC12CC3CC(C1)C(=O)C(C3)C2,"inconclusive: 44.7 µM [inhibitor, single point]"
11,COc1ccc(CCNC(=O)[C@H](C)N2C(=O)N3CCc4c([nH]c5ccccc45)[C@@]3(C)C2=O)cc1OC,"inconclusive: 11.2 µM [inhibitor, partial curve]"
12,CCCN(Cc1nnc(-c2ccccc2Cl)o1)C(=O)c1cc([N+](=O)[O-])cc([N+](=O)[O-])c1,"inconclusive: 25.1 µM [inhibitor, partial curve]"
13,O=C(CNC(=O)C12CC3CC(CC(C3)C1)C2)N/N=C\c1ccccn1,"inconclusive: 6.31 µM [inhibitor, partial curve]"
14,C/C(=N\OCC(=O)NC12CC3CC(CC(C3)C1)C2)c1cc2ccccc2o1,"inconclusive: 14.1 µM [inhibitor, partial curve]"
15,Cc1cc(C)cc(OCC(=O)OCC(=O)NCc2cccs2)c1,inactive
16,CC(=O)CSc1ncnc2sc3c(c12)CCC3,"inconclusive: 25.1 µM [inhibitor, partial curve]"
17,Cc1nc(NC(=O)COC(=O)CCC(=O)c2cccs2)c(Cl)cc1Cl,"inconclusive: 56.2 µM [inhibitor, single point]"
18,COc1cc(OC)cc(C(=O)NNC(=O)c2ccc(S(=O)(=O)N(C)c3ccccc3OC)cc2)c1,"inconclusive: 28.2 µM [inhibitor, partial curve]"
19,CC1CCCCN1CC(O)COCCC12CC3CC(CC(C3)C1)C2 (stereo not given),"inconclusive: 28.2 µM [inhibitor, partial curve]"
20,O=C(CSCc1nc2ccccc2[nH]1)Nc1ccc(Oc2ccccc2)cc1,"inconclusive: 28.2 µM [inhibitor, partial curve]"
21,Cc1[nH]c2ccccc2c1/C=N/NC(=O)CNC(=O)c1ccc2c(c1)OCO2,"inconclusive: 14.1 µM [inhibitor, partial curve]"
22,c1cc(Nc2cccc3nccnc23)c2nccnc2c1,"inconclusive: 39.8 µM [inhibitor, partial curve]"

row,SMILES,Potency
1,CC1CC2C3CCC4=CC(=O)C=C[C@@]4(C)[C@]3(F)C(O)C[C@]2(C)[C@]1(O)C(=O)COP(=O)(O)O (stereo not given in full),inactive
2,O=[N+]([O-])c1ccc(N2CCc3ccccc3C2)nc1,"inconclusive: 28.2 µM [inhibitor, single point]"
3,O=C(CNC(=O)C1COc2ccccc2O1)N/N=C/c1ccc(O)cc1O (stereo not given),"inconclusive: 56.2 µM [inhibitor, single point]"
4,CN1C(=O)/C(=N/OC(=O)c2ccccc2)c2ccccc21,"inconclusive: 22.4 µM [inhibitor, partial curve]"
5,COc1ccc(CCNC(=O)NC23CC4CC(CC(C4)C2)C3)cc1OC,"inconclusive: 28.2 µM [inhibitor, partial curve]"
6,O=C(c1ccoc1)N1CCCC(Nc2ccc(F)c(F)c2)C1 (stereo not given),"inconclusive: 25.1 µM [inhibitor, single point]"
7,O=C(Cc1ccc(Br)cc1)c1ccc(O)cc1O,"inconclusive: 28.2 µM [inhibitor, partial curve]"
8,CCn1cc(C(=O)N2CCN(c3ccccc3)CC2)c(=O)c2cc(S(=O)(=O)N3CCCC3)ccc21,inactive
9,COc1cccc(C(=O)Nc2nc3nc(C)c(C)c(=O)n3[nH]2)c1,inactive
10,CCOc1ccc(N=c2scc(-c3ccc(OC)cc3)n2CCO)cc1,"inconclusive: 35.5 µM [inhibitor, partial curve]"
11,CN(C)/C=C/C(=O)c1cnc(-c2ccccc2Cl)s1,"inconclusive: 39.8 µM [inhibitor, partial curve]"
12,CSc1nc(Cc2ccc(Cl)cc2)nc2ccccc12,"inconclusive: 20 µM [inhibitor, partial curve]"
13,CC(Oc1ccc(Cl)cc1Cl)C(=O)Nc1ccncc1 (stereo not given),inactive
14,O=C(Nc1ccc(Cl)c(Cl)c1)OCc1cnc(Cl)s1,"inconclusive: 5.01 µM [inhibitor, full curve]"
15,COc1ccc(S(=O)(=O)Nc2ccc(F)cc2)c(C)c1C,"inconclusive: 20 µM [inhibitor, partial curve]"
16,O=C1/C(=C/c2ccccc2)SC(=S)N1CC(=O)N1CCCCC1c1cccnc1 (stereo not given),"inconclusive: 28.2 µM [inhibitor, partial curve, poor fit]"
17,O=C(CNC(=O)c1ccco1)OCC(=O)c1ccc2c(c1)CCCC2,"inconclusive: 10 µM [inhibitor, partial curve]"
18,Cc1cc(=O)[nH]c(SCC2(O)C3CC4CC(C3)CC2C4)n1 (stereo not given),"inconclusive: 6.31 µM [inhibitor, full curve]"
19,CCN(CC)Cc1c(C(=O)N/N=C/c2cccc(OCc3cccc(Cl)c3)c2)nnn1-c1nonc1N,"inconclusive: 35.5 µM [inhibitor, partial curve]"
20,CCOc1ccc(S(=O)(=O)N(C(=O)c2ccco2)c2cc3sc(=O)oc3c3ccccc23)cc1,"inconclusive: 17.8 µM [inhibitor, partial curve]"
21,O=C(O)CCC(=O)N1CCc2cc(S(=O)(=O)N3CCC(Cc4ccccc4)CC3)ccc21,"inconclusive: 50.1 µM [inhibitor, single point]"
